Source: PubChem BioAssay AID1794747 (DTP/NCI, 2022)
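Testing used 96-well plates and a 48-hour single-concentration exposure. Example: -40 means 40% of the starting cells died.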 A number of entries come with more than one value. The list is limited to them. The source may hold further records. This drug was run again and again over the years, at the concentration stated with the values; each value is one run. Additions like (4×) say how often a value occurs here.

System: SNB-78
Assay: NCI-60 one-dose screen, 48 h (100 = growth as untreated, 0 = no growth, -100 = all killed)
Conditions: 2.5 mM
Method: Growth inhibition of the SNB-78 human tumor cell line is measured as a screen for anti-cancer activity. Cells are grown in 96 well plates and exposed to the test compound for 48 hours. Compounds are tested at a single concentration, which is 10^-5 M for most compounds. The reported endpoint is percent growth (GI% or GIPRCNT), where numbers from 0 - 100% represent growth inhibition, and numbers from -100% - 0 represent cell death. For example, a value of 40 represents 60% growth inhibition. A value of 0 means no net growth occurred over the course of the experiment. A value of -40 indicates 40% of cells at the beginning of the experiment died by the end of the experiment. A value of -100 means all cells are dead at the end of the experiment.
NCI-60 Human Tumor Cell Lines Screen was performed using the standard one-dose NCI protocol, which is described in more detail at https://dtp.cancer.gov/discovery_development/nci-60/default.htm.
Compounds with GIPRCNT values below 10 were considered active. Activity score was based on GIPRCNT using the following formula: […]
Score is 0 for GIPRCNT values of 100 or above, 50 for GIPRCNT values of 0, and 100 for GIPRCNT values of -100.

SMILES: O=c1[nH]cc(F)c(=O)[nH]1
- growth (runs of 1991): 20.9, 54, 53.4, 72.6, 43.2, 44.4, 65.9, 39.3, 28.5, 28.3%
- growth (runs of 1992): 48.8 (2×), 53.3 (2×), 37, 109, 12.6, 45.4, 55.5, 34.9, 31.3, 50.1 (2×), 41.6, 30.8, 25.5, 58.1 (2×), 44.8, 4.1, 35, 67.5, 37.2, 54.3 (2×), 43.3 (2×), 40, 68.8, 37.8, 70.3, 45, 44.4, 41.4, 86, 48.4, 46.2 (2×), 85.9, 107, 54.2, 38.3, 59.7, 126, 67.1, 52.8, 54.6, 28.7, 58.3, 42.2, 26.7, 4.36, 34.8, 52.6, -1.47, 31.5, 39.5, 42.3, 66.4, 40.7, 48.7, 45.5, -16.7, 65, 31.9, 36.4, 26.3, 161, 65.3, 32.5, 49.7, 34, 40.5, 60.9, 35.7, 74, 67.9, 32.1, 67.7, 59.5, 56.5, 51.3, 61.2, 40.4, 14.7, 46.4, -0.438, 32.8, 62.8, 94.4%
